# According to the supplement of paper PMC3334620:
# Over roughly 33,000 sequences, “E-score (-0.5 to 0.5)” has its median near -0.054; the highest 2% begin near 0.39. This is one part of the list.
# Target: Ylr278c (UniProt Q05854)
# Assay: PBM E-score (8-mer binding enrichment) (E-score (-0.5 to 0.5)); higher = stronger / more preferred TF binding; most listed sequences are background and not binding sites
# Settings: protein concentration: 200 nM; construct: GST-DNA-binding domain
# How it was run: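 For each ungapped eight-base word taken together with its reverse complement, the Universal PBM Analysis Suite assigned an E-score. Binding data came from GST-tagged yeast transcription factors, applied at about 100-200 nM, on universal all-10-mer Agilent arrays made double-stranded by primer extension. Fluorescent anti-GST marked bound protein, and scans were normalised with masliner.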
row,Sequence,PBM E-score
1,AGAACCCA,-0.304
2,GAGGACCA,-0.0565
3,TATTTGGA,-0.218
4,GGCTATGA,-0.0494
5,CATAGGAA,-0.149
6,CCCAGACA,-0.118
7,CCACGAGA,-0.136
8,AGTCCTCC,0.0204
9,GCACTGAC,-0.0988
10,CGCGCAAC,0.183
11,ATGGACCA,-0.156
12,AATCTAAT,-0.0263
13,CGGCGGAA,0.438
14,GTGTGTTA,-0.171
15,ATCCGTGC,0.125
16,CTAGAGTA,-0.0401
17,ATCAATAG,-0.218
18,CTCCCTCA,-0.222
19,AACCCTTC,-0.0623
20,AATTCGTC,-0.0112
21,AAATGGGG,-0.252
22,CCACGTTA,-0.19
23,ATAGGACA,-0.311
24,ACTATCCA,-0.0732
25,CCGCAGCA,0.219

row,Sequence,PBM E-score
1,ATTACCTG,-0.0781
2,CTTTTAAA,0.0549
3,AAGGCCGT,0.142
4,AGGCGCCG,0.206
5,AGTGTTAC,0.0451
6,ACCGCATG,-0.0592
7,ACGCTTGA,-0.111
8,AAATGGCA,-0.0287
9,GTAGTATA,-0.00386
10,AAGGCTTA,-0.306
11,CATGCTCG,-0.194
12,CAAAGGGC,-0.0353
13,ATGGGACG,-0.103
14,ATGTTAAT,-0.0421
15,GAGGGACA,-0.0911
16,ATTCTAAA,-0.0463
17,CCAGCCGC,0.274
18,CCATTGAC,-0.0901
19,AGATTAAA,0.0622
20,TCCGTTCA,0.266
21,AGAGTACG,-0.0578
22,AACGTAAT,-0.223
23,AGGCTCGC,0.0507
24,CGAAGGAA,-0.198
25,ATCGGAGC,0.458

row,Sequence,PBM E-score
1,ATAAGGGA,-0.139
2,AGACGTGA,-0.109
3,CGTCATGC,-0.0987
4,ATCAATGG,0.00091
5,AACTGAGC,-0.00353
6,CCGATAGG,0.231
7,AGACATGG,-0.179
8,GTTTGTGA,-0.19
9,AGTTGATC,-0.0079
10,ACTGCCAA,-0.045
11,AGGAGAAT,0.0744
12,AGAATATC,0.105
13,ACGAACGA,-0.127
14,AAGGTCTC,-0.206
15,AACCCCTG,-0.0141
16,TTCGCAAA,0.172
17,GCAACGAA,-0.0933
18,ATCTAAAC,0.0895
19,ATGACGTC,0.114
20,AATTGATG,0.0757
21,AACAGGTT,-0.167
22,AGTTCATG,0.135
23,CAATCAGC,-0.153
24,CATGCGCC,0.166
25,CCCAGCGC,0.0192

row,Sequence,PBM E-score
1,AATTGCAA,0.0181
2,AGGCCGTG,0.142
3,AAGTAATT,0.0591
4,ATTATTTC,0.175
5,CCTCCCAG,-0.216
6,CACAACGC,0.077
7,GAATGCGA,0.103
8,AGTAGCTA,0.0312
9,CTATCCAG,-0.0623
10,AGCATACA,-0.0973
11,GTTTCGGA,0.4
12,GGTAGCAC,-0.114
13,CGGTGGAG,0.118
14,CTCAAGCC,0.0394
15,GAGAGAGC,-0.0857
16,CGGCCGAA,0.318
17,AGCCTTAT,-0.0811
18,GGGATCAA,-0.0692
19,GACGGACA,0.328
20,CGCCATGA,-0.0784
21,TACTGTAA,-0.0262
22,ATTGTCTC,-0.0615
23,TGAAACCA,0.0471
24,AGTAGGCG,-0.0103
25,CTATAGTA,0.0716

row,Sequence,PBM E-score
1,CAACTCGA,-0.182
2,ACGACTGA,-0.157
3,ATTTCAAA,-0.0254
4,CACGCGCA,0.047
5,AATAGCTG,-0.125
6,GGTGGGAA,0.016
7,CCTCCGCC,0.413
8,ATCCTTGA,-0.109
9,CGAGATGC,-0.0147
10,GGGACCCA,0.0522
11,ACCCTCAA,-0.0838
12,AATTTCCG,0.448
13,ATATCAGG,-0.12
14,TAGAAAGA,-0.131
15,AATAGGAG,-0.198
16,GACGCAGC,-0.258
17,AGAAGCGC,0.11
18,AATTGAAG,0.0497
19,ACTAGGAG,-0.0249
20,ACTCTTAC,-0.123
21,AAGTGTAG,-0.169
22,CGGTCCGA,0.455
23,ACAAGCAC,-0.101
24,GTGTACGA,-0.00044
25,AAAAAGTG,-0.0929

row,Sequence,PBM E-score
1,CCGGTCGC,0.236
2,GCCCAGAC,-0.159
3,CCTGAAAA,0.021
4,ATAGTGAT,-0.203
5,AATAAGTA,-0.0932
6,AGATTTGA,-0.129
7,GCGCCCTA,-0.0209
8,ATCTTTCA,0.0509
9,AGTCTTGC,-0.265
10,AGTCCAAC,-0.104
11,GGGGTTCA,0.0957
12,AAGCCCTT,-0.267
13,CATACCCA,-0.159
14,AGGGGACG,-0.162
15,CTGGTTCA,-0.23
16,CGACACTA,0.102
17,AGAACAAC,0.0283
18,CATTTATA,-0.0229
19,GCCGTGGA,0.15
20,ATAACAGA,-0.124
21,ACCGACTG,0.0883
22,AACAAAAC,0.0279
23,AGGGTTGA,-0.124
24,AAATCCTT,-0.061
25,CACCGGTC,0.183

row,Sequence,PBM E-score
1,CAGTAGGA,-0.168
2,TACCGGCA,0.309
3,AGACCGGG,0.304
4,CTCGAATC,-0.233
5,CCCGGGCA,0.331
6,AGCGCTAG,-0.126
7,CTACCTCA,0.00428
8,CATGTCCG,0.384
9,ACGCAAGG,-0.274
10,CACACGCG,0.0929
11,CCGGACGA,0.406
12,CCTTCAGA,-0.282
13,GAGATTCC,0.272
14,AATCTTCC,0.167
15,ATGTTAGG,-0.23
16,AGAAGTCT,-0.211
17,CACAAACA,-0.103
18,CTACATTA,-0.193
19,AGAACACC,0.015
20,CCATTAGA,-0.0631
21,ATCTAATG,-0.0201
22,ACACAAGA,-0.0979
